System: GABAA inhibitory postsynaptic currents (IPSCs)
Conditions: for block of IPSC potentiation by flumazenil (BZD-site antagonist): FMZ 10 μM, CLB 10 μM, DZP 1 μM, STP 100 μM, n=4; for effect on IPSC decay: dentate gyrus granule cells, rats aged 5 to 65 days

CC(C)(C)C(O)/C=C/c1ccc2c(c1)OCO2 (stereo not drawn) [STP, 1-(3,4-methylenedioxyphenyl)-4,4-dimethylpent-1-en-3-ol]
potentiation of GABAA IPSC in the presence of the BZD agonist clobazam: potentiates the GABAA IPSC
block of IPSC potentiation by flumazenil (BZD-site antagonist): but not STP
effect on IPSC decay: prolonged IPSC decay

CN1C(=O)CC(=O)N(c2ccccc2)c2cc(Cl)ccc21 [CLB, clobazam]
block of IPSC potentiation by flumazenil (BZD-site antagonist): is blocked by flumazenil

CN1C(=O)CN=C(c2ccccc2)c2cc(Cl)ccc21 [DZP, diazepam]
block of IPSC potentiation by flumazenil (BZD-site antagonist): is blocked by flumazenil
effect on IPSC decay: prolonged IPSC decay
